Measured values taken from the supplement of paper PMC12889115.
The list shows a part of the results. Rule as the data show it: active = 25% or less and inactive = the rest. Repeats are few or missing, and single values can be far off.

Each molecule was assayed on Salmonella enterica serovar Typhimurium SL1344 (assay: intramacrophage bacterial GFP load (SAFIRE), percent of DMSO control (% of DMSO); higher = more intracellular bacteria (less inhibition)). Settings: 25 µM; system: infected RAW 264.7 macrophages.
Procedure: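 Secondary screen of the 553 primary hits at 25 µM. (i) S. Typhimurium SL1344 grown in Mueller-Hinton broth with 0.5 µg/mL polymyxin B, OD600 read after 18 h. (ii) SAFIRE assay: RAW 264.7 macrophages infected with S. Typhimurium sifB::gfp (MOI 30); compound added 2 h post-infection; cells fixed at 18 h; GFP-positive pixel fraction per macrophage imaged by confocal microscopy and expressed as % of DMSO control.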
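Also: compounds tested were the hits of an earlier 50 µM broth growth screen of a drug-like diversity library run with polymyxin B.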

| Compound | intramacrophage bacterial GFP load |
| --- | --- |
| CCCCn1c(CN2CCCC(COC)C2)cnc1S(=O)(=O)CCCC(C)C (stereo unspecified) | inactive: 47 |
| Cc1ccc(-c2nnc(CCC(=O)NCCc3cccc4ccccc34)o2)s1 | inactive: 64.5 |
| COc1ccc(CC2(CCC(=O)N3CCC(Oc4ccc(F)cc4)CC3)CCC(=O)N2)c(F)c1 (stereo unspecified) | inactive: 70.8 |
| O=C(C1CC12CCCCC2)N1CCc2onc(-c3ccccc3F)c2C1 (stereo unspecified) | inactive: 54.7 |
| COc1cccc(CN2CCC(C(=O)Nc3ccccc3-c3cccc(OC)c3)CC2)c1 | active: 0.0359 |
| O=C(c1cccc2ccccc12)C1CCCN(C(=O)c2ccc3c(c2)OCO3)C1 (stereo unspecified) | inactive: 114 |
| CSc1ccccc1C(=O)NCc1c(C)ncc2c1CCN(C(=O)c1cc3ccccc3o1)C2 | inactive: 59.5 |
| CN(CC1CCCCO1)C(=O)c1cn(Cc2ccc(Cl)cc2)nn1 (stereo unspecified) | inactive: 41.2 |
| c1ccc(Cc2noc(-c3ccc(NC4CCSC4)nc3)n2)cc1 (stereo unspecified) | inactive: 126 |
| c1ccc(-c2nc(CNc3nc4nonc4nc3NC3CC3)cs2)cc1 | inactive: 232 |
| O=C(c1cc2ccccc2s1)N1CCCC(Nc2ccc3c(c2)OCCO3)C1 (stereo unspecified) | inactive: 57.9 |
| CCOC(=O)C1(Cc2cccc(Cl)c2)CCCN(Cc2nccn2CC)C1 (stereo unspecified) | active: 6.09 |
| COc1ccc(CC2(CCC(=O)NCCc3ccccc3C(F)(F)F)CCC(=O)N2)c2ccccc12 (stereo unspecified) | active: 1.07 |
| O=C(C1CC12CCCC2)N1CCc2[nH]nc(-c3ccc4c(c3)OCO4)c2C1 (stereo unspecified) | inactive: 76.5 |
| O=C(CCC1CCCN(Cc2cccc(O)c2)C1)NCc1ccccc1Cl (stereo unspecified) | active: 8.41 |
| CCN1C(=O)CC(CC(=O)N2CCCC(c3ccccc3)CC2)(c2cccc(C(F)(F)F)c2)C1=O (stereo unspecified) | inactive: 100 |

| Compound | intramacrophage bacterial GFP load |
| --- | --- |
| Cc1cc(C(=O)N2CCc3c([nH]c4ccccc34)C2c2ccc(F)cc2)no1 (stereo unspecified) | inactive: 104 |
| O=C(CCC1(Cc2ccc(F)cc2)CCC(=O)N1)NC(c1ccccc1)c1ccc(Cl)cc1 (stereo unspecified) | inactive: 50.6 |
| CCN1C(=O)CC(CC(=O)N(CC2CCC2)CC2CCCO2)(c2cccc(C(F)(F)F)c2)C1=O (stereo unspecified) | inactive: 101 |
| OCC1(Cc2ccccc2F)CCCN(Cc2cccc3ccccc23)C1 (stereo unspecified) | active: 3.32 |
| O=S(=O)(c1ccccc1Cl)N1CCCC(CO)(Cc2cccc(Cl)c2)C1 (stereo unspecified) | inactive: 76.2 |
| COc1cc(CN2CCOc3ccc(C(O)CCc4ccccc4)cc3C2)cc(OC)c1 (stereo unspecified) | inactive: 32.4 |
| O=C(c1coc(COc2ccc3c(c2)OCO3)n1)N1CC[C@@H]2CCCC[C@H]2C1 | inactive: 55.4 |
| CCc1ocnc1C(=O)NC1CC(=O)N(CCc2cccc(Cl)c2)C1 (stereo unspecified) | inactive: 100 |
| CC(=O)c1ccc(F)c(-c2cc(C)cc3c2OC(CNC(=O)/C=C/c2ccccn2)C3)c1 (stereo unspecified) | inactive: 172 |
| CSc1ccc(C(=O)N2CCC(C(Cc3ccc(F)cc3F)N(C)C(=O)C3CC3)CC2)cc1 (stereo unspecified) | active: 10.3 |
| Cc1cccc(-c2cnc(-c3ccncc3)nc2C2CCN(C(=O)c3cc(CC(C)C)on3)CC2)c1 | inactive: 60.8 |
| CN(Cc1ccccc1)C1(C(=O)NCCc2c[nH]cn2)Cc2ccccc2C1 | active: 10.4 |
| COCC(=O)Nc1cnn(-c2cccc(C(=O)N3CCc4c([nH]c5ccccc45)C3C(C)C)c2)c1 (stereo unspecified) | inactive: 129 |
| O=S(=O)(c1ccccc1C(F)(F)F)N1CCC(CO)(Cc2ccccc2Cl)CC1 | inactive: 66.6 |
| CN(Cc1cn(C)nc1-c1ccc2c(c1)OCCO2)Cc1cccc2ncccc12 | inactive: 108 |
